Molecules are shown by their SMILES. The whole screen tested about 150,000 compounds, of which about 540 (0.36%) showed an effect of 50% or more. The list shows a part of the results.

This assay deals with Plasmodium falciparum. The assay can be described thus: Primary screen in NF54 nanoGlo assay, in single point, at 2uM, 72h; a lower Z score goes with more inhibition. The class given is functional, Erythrocyte. As to conditions: timepoint 72 hour.
The term % Inhibition denotes the relative decrease from the control value, in per cent. As to `O=c1c(-c2cc(Br)ccc2NCc2ccccc2)nc2ccccc2n1Cc1ccccc1`, the “% Inhibition” value came out at 2% and the Z score is listed as -0.32.

As for `C[C@@H](c1ccc2c(c1)CCC2)S(=O)(=O)Cc1cccc(C(N)=O)n1`, the “% Inhibition” value is listed as -18% and the Z score stood at 3.17.

Regarding `O=C1CC[C@@]2(CCCO2)CCN1Cc1ccccc1OC(F)(F)F`, the “% Inhibition” value is -2% and the Z score is recorded as 0.28.

As for `CCNc1ncc(C(=O)N(Cc2ccccn2)C2CCCCC2)cn1`, the “% Inhibition” value was -12% and the Z score is reported as 1.5.

In the case of `O=C(NC[C@@H](c1ccco1)S(=O)(=O)c1ccccc1)C1CCCCC1`, the “% Inhibition” value is on record as -9% and the Z score stood at 1.62.

As to `CN(CCc1ccccn1)C(=O)c1cc2cc(Br)ccc2o1`, the “% Inhibition” value is given as -3% and the Z score is on record as 0.44.

Turning to `Cc1ccc(OCCCn2cnc3c(N)nc(N)nc32)cc1C`, the “% Inhibition” value is -5% and the Z score was found to be 0.83.

In the case of `C#CCN1CCC(C(=O)N2CC(S(=O)(=O)N3CCc4ccccc43)C2)CC1`, the “% Inhibition” value came to 5% and the Z score is given as -0.52.

For `Cc1ncc2n1CC[C@H](C(=O)N(C)CC1(O)CCC1)C2`, the “% Inhibition” value is -6% and the Z score is reported as 1.14.

Turning to `CCN(CC(=O)Nc1c(C)cccc1C)C(=O)C(F)(F)C(F)F`, the “% Inhibition” value is -2% and the Z score is listed as 0.3.

For the molecule `CC1CCN(CC(=O)Nc2ccc3c(c2)OCCCO3)CC1`, the “% Inhibition” value came to 1% and the Z score is reported as -0.14.

In the case of `CC(=O)Oc1c(S(=O)(=O)c2ccccc2)c(C)nn1-c1ccc(C)cc1C`, the “% Inhibition” value is on record as -9% and the Z score is given as 1.34.

Regarding `CNC(=O)c1cccc(COc2c(C)nn(C)c2C)c1`, the “% Inhibition” value was -7% and the Z score is recorded as 0.99.

For the molecule `Cc1nn(-c2ccc(Br)cc2)c(NC(=O)N2CCC[C@@H]2CO)c1C`, the “% Inhibition” value is given as -12% and the Z score turned out to be 1.33.

In the case of `Cc1nonc1CN(C)c1nccc(-c2c(C)nn(C)c2C)n1`, the “% Inhibition” value is on record as 2% and the Z score is -0.24.

On to `CN1C(=O)CO[C@H]2CN(C(=O)c3ccccc3)C[C@H]21`, for which the “% Inhibition” value is listed as 6% and the Z score is -0.68.

For `Cc1ccc(CS(=O)(=O)[C@@H](C)C(=O)Nc2cc(C)on2)cc1`, the “% Inhibition” value is given as -8% and the Z score amounted to 0.68.

For the molecule `Cc1cc(C(=O)Nc2ccc(F)cc2)c2c(C)nn(-c3cccc(F)c3)c2n1`, the “% Inhibition” value is -7% and the Z score is on record as 0.66.

For the molecule `CN1C(=O)c2ccccc2O[C@H]2CN(Cc3ccc4c(c3)OCO4)C[C@H]21`, the “% Inhibition” value was -1% and the Z score was determined as 0.22.

For `C[C@H](Oc1ccc(F)cc1)c1nnc(-c2cnc3onc(C4CC4)c3c2)o1`, the “% Inhibition” value is recorded as -5% and the Z score stood at 0.74.

On to `Cc1c(-c2noc(C(=O)NCCc3ccc(Cl)cc3)n2)oc2ccccc12`, for which the “% Inhibition” value is 1% and the Z score is on record as -0.2.

For the molecule `CCCn1nnnc1COC(=O)CCNC(=O)c1ccccc1C`, the “% Inhibition” value worked out at 3% and the Z score was -0.48.

With `CN1CCCC[C@@H]1Cc1ncnc2sccc12`, the “% Inhibition” value was 1% and the Z score was -0.12.

Turning to `O=C(NCc1ccccc1F)c1ccc(CN2CC(=O)N3CCC[C@H]3C2=O)cc1`, the “% Inhibition” value is listed as -11% and the Z score was 2.15.

`CC[C@H](C)N(Cc1csc(COc2cc(C)cc(C)c2)n1)C(=O)c1ccc2c(c1)OCO2`: the “% Inhibition” value is -9% and the Z score is given as 0.96.

As for `CCCN(CCC(=O)Nc1cccc(Br)c1)CC(=O)O`, the “% Inhibition” value was -10% and the Z score was 1.13.

Take `CC(C)[C@@H](NS(=O)(=O)C1CC1)c1nc(-c2ccn(C)n2)no1`: the “% Inhibition” value was -1% and the Z score is 0.11.

`Cc1ccncc1CNC(=O)NC[C@H]1CN(C)C[C@@H]1c1ccccc1`: the “% Inhibition” value is recorded as -3% and the Z score is given as 0.53.

Take `C[C@@H](c1ccncc1)N(C)CCCc1ccc2c(c1)CCO2`: the “% Inhibition” value is -3% and the Z score is 0.33.

Regarding `Cc1ncccc1C(=O)Nc1cccc(Oc2cccnn2)c1`, the “% Inhibition” value was determined as 37% and the Z score was -5.37.

With `CCC1CC(C(=O)N[C@H]2[C@@H]3CN(Cc4ccc(CC(C)C)cc4)C[C@@H]32)CCO1` (stereo partly drawn), the “% Inhibition” value is given as -4% and the Z score turned out to be 0.64.

Turning to `Cc1ccc(CNC(=O)NC2CCCCC2)n1C`, the “% Inhibition” value was 11% and the Z score is -1.32.

Take `COc1cc(Cl)c(CN(C)CC2(C)COC2)c(OC)c1`: the “% Inhibition” value is given as -5% and the Z score stood at 1.01.

Take `O=C(O)Cc1sc(NCc2ccco2)nc1-c1ccc(Cl)cc1`: the “% Inhibition” value is listed as 13% and the Z score is listed as -1.49.

In the case of `Cc1cccc(-c2nc3nc(C)c(CC(=O)N4CCCC4)c(C)n3n2)c1`, the “% Inhibition” value was -13% and the Z score came to 1.53.

For the molecule `O=C(Nc1cncc(F)c1)N1CCC(OC2CCC2)CC1`, the “% Inhibition” value is listed as -6% and the Z score worked out at 1.19.

Consider `CCCNC(=O)C[C@@H]1C[C@H]2O[C@H](CNCc3cccnc3OC)[C@@H](O)[C@H]2O1`, for which the “% Inhibition” value worked out at 4% and the Z score is given as -0.58.

For the molecule `O=C(NC1CCCCCCC1)C1CCC1`, the “% Inhibition” value is -10% and the Z score is 1.32.

Turning to `COc1cc(C)ccc1Oc1nc(C)nc(N(C)Cc2ccccc2)c1N`, the “% Inhibition” value is listed as -1% and the Z score is 0.22.

For `COc1cc(OC)cc(C(=O)Nc2c(C(=O)N3CCC(C)CC3)oc3ccccc23)c1`, the “% Inhibition” value is listed as -10% and the Z score is reported as 1.47.

With `Cc1ccn2nc(C(=O)N3CCCNCC3)cc2c1`, the “% Inhibition” value is on record as -2% and the Z score is listed as 0.3.

Turning to `CC(C)c1cccc(-n2cc(O)c(C(=O)N3CCN(c4ccccc4)CC3)n2)c1`, the “% Inhibition” value stood at 6% and the Z score is -1.29.

Take `CCCCCOCC(=O)Nc1nc(C)nn1CC`: the “% Inhibition” value is -5% and the Z score amounted to 0.67.

Regarding `Cc1cccc(C)c1NC(=O)c1c(-c2ccccc2)c(-c2ccccc2)n[nH]c1=O`, the “% Inhibition” value was 3% and the Z score is given as -0.39.

With `CC(C)(C)n1cc(C(=O)N2CCc3cc(F)c(F)cc32)nn1`, the “% Inhibition” value is -5% and the Z score came out at 0.4.

`Cc1cnn(Cc2nnc(-c3ccccc3)o2)c(=O)c1`: the “% Inhibition” value is reported as -31% and the Z score is 3.58.

On to `CC[C@@H](C(=O)N(CC)CCOc1ccc(C)cc1)N(C)CC`, for which the “% Inhibition” value is reported as 0% and the Z score was -0.03.

Take `Cc1c(C)n(C[C@@H](O)Cn2ccnc2C)c2c(Cl)cccc12`: the “% Inhibition” value is -5% and the Z score worked out at 0.7.

As to `CCCn1cc(CNC(=O)c2cc(CC(C)C)no2)cn1`, the “% Inhibition” value is recorded as -22% and the Z score was found to be 3.11.

On to `CO[C@H]1COCC[C@@H]1NC(=O)c1ccccc1Cc1ccc(C)c(F)c1`, for which the “% Inhibition” value was 5% and the Z score is reported as -0.66.

Regarding `CCCc1noc(CN(C)C(=O)c2cc[nH]c2C)n1`, the “% Inhibition” value is reported as -10% and the Z score was determined as 1.54.

Turning to `C=CCCn1ccc(-c2cccc(-c3ccncc3C)c2)n1`, the “% Inhibition” value is -11% and the Z score turned out to be 1.42.

With `COC(=O)CN(C(=O)c1cc(C(C)C)on1)c1cccc(F)c1`, the “% Inhibition” value was 8% and the Z score is -1.01.

As for `COc1ccc(C(=O)n2nc(Nc3ccccc3Cl)cc2Nc2ccccc2Cl)cc1`, the “% Inhibition” value stood at 36% and the Z score is given as -0.85.
